Reference: PMC4336329 (PLoS ONE, 2015)
The campaign covered roughly 310,000 compounds. About 14,000 (4.5%) showed an effect of 50% or more. The effect is printed as a negative number. Some of the results follow.

target: human ether-à-go-go-related gene (hERG) potassium channel (human, UniProt Q12809); test: primary screen, population patch clamp on CHO cells stably expressing hERG
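Further: peak tail current of the secondary pulse compared with the same well before compound.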

human ether-à-go-go-related gene (hERG) potassium channel, sequence (Q12809 whole entry, looked up): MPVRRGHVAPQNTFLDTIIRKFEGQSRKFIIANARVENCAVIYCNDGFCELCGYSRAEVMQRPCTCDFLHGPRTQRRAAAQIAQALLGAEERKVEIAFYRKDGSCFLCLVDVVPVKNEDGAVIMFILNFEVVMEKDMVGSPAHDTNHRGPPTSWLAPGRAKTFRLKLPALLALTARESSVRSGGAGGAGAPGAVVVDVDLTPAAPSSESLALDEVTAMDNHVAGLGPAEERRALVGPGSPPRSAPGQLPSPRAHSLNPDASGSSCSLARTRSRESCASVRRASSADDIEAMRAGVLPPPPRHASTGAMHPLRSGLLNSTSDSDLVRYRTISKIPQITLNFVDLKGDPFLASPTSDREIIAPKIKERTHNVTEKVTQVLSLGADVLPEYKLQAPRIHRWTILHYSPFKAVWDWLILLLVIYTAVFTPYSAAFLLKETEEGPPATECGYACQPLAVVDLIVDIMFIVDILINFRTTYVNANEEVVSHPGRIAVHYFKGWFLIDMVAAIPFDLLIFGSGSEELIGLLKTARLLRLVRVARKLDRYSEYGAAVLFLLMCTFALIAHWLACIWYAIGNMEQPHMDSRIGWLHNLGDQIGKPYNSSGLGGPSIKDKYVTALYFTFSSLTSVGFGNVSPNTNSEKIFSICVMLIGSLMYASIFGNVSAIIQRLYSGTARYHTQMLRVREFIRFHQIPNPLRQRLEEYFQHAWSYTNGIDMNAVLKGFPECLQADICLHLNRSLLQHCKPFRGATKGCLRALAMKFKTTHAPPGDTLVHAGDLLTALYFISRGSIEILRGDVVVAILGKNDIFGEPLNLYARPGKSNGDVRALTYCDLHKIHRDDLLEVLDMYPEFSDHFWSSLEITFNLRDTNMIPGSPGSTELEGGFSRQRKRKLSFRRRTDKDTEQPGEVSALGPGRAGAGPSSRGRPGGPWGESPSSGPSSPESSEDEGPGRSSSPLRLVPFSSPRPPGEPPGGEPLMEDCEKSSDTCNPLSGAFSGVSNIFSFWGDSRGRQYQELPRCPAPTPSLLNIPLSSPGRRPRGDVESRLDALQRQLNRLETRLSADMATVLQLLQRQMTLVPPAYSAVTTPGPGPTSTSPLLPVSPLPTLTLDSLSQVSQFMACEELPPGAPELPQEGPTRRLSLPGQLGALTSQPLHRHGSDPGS

Row | Compound | hERG current change (%, negative = inhibition) at 10uM [%]
1 | COc1ccc(N2CCN(C(=O)COC(=O)c3cccc(S(=O)(=O)Nc4ccccc4OC)c3)CC2)cc1 | -40.2
2 | CCOC(=O)CSc1ccc2nnc(-c3ccccc3)n2n1 | -39.3
3 | O=C(CNC(=O)c1cccs1)c1ccc([N+](=O)[O-])cc1 | -18.4
4 | CC/C(=N\NC(=O)c1ccc(Br)cc1)c1ccccc1 | 11.4
5 | CCOc1ccc2nc(SC(CC)C(=O)Nc3cc(C)on3)sc2c1 (stereo not shown) | 22.8
6 | O=C(Nc1cc(C(F)(F)F)ccc1N1CCOCC1)c1cn2ccccc2n1 | -2.98
7 | O=C(NC1CCCCCCC1)c1ccc(S(=O)(=O)N2CCCC2)cc1 | -2.4
8 | CC(NC(=O)COC(=O)/C=C/c1ccco1)c1ccccc1 (stereo not shown) | 4.48
9 | Cc1cc(CNC(=O)COc2ccc(F)cc2)c2ccccc2n1 | -13
10 | O=C(/C=C/c1ccc(Br)cc1)c1ccco1 | 11.8
11 | CC1CCCN(CC(=O)Nc2ccc(S(=O)(=O)N3CCCCC3)cc2)C1 (stereo not shown) | -15.7
12 | CCC(=O)Nc1ccc(NC(=O)c2oc3ccccc3c2C)cc1 | 6.1
13 | COc1ccccc1NC(=S)NC1CCCC1 | -8.43
14 | CC1(C)CC(NC(=O)COc2ccc3ccccc3c2)CC(C)(C)N1 | -12.6
15 | CC(C)(C)NC(=S)NNC(=O)c1ccc2ncccc2c1 | 9.77
16 | COCCNC(=S)N/N=C(\C)c1ccc2cc(OC)ccc2c1 | 32.1
17 | CCOC(=O)C1CCCN(C(=O)c2ccccc2Oc2ccccc2)C1 (stereo not shown) | -29.5
18 | Cc1cc(C(=O)N2CCOCC2)c(C)o1 | 7.73
19 | Cc1ccc2nc(-c3ccccc3)cc(C(=O)N3CC(C)OC(C)C3)c2c1 (stereo not shown) | -5.94
20 | CC(=O)c1ccc(OC(=O)CCN2c3ccccc3Sc3ccccc32)cc1 | 24.2
21 | C[C@@H]1C(=O)O[C@H]2[C@H](O)[C@@]34[C@H]5C[C@@H](C(C)(C)C)[C@]36[C@@H](OC(=O)[C@@H]6O)O[C@@]4(C(=O)O5)[C@@]12O | 21.2
22 | COc1ccc(CN2CCNC(=O)C2CC(=O)NCCC2=CCCCC2)c(F)c1 (stereo not shown) | -32.9
23 | CCOC(CNC(=O)CN1C(=O)COc2ccc(S(=O)(=O)N3CCOCC3)cc21)OCC | 18.7
24 | COc1cccc(NC(=O)NC2CCCc3ccccc32)c1 (stereo not shown) | 12.1
25 | Cc1[nH]c2ccccc2c1C(=O)C(=O)NCc1ccncc1 | 5.61
26 | CC(SCc1ccccc1)C(=O)Nc1ccccc1-c1ccccc1 (stereo not shown) | -4.91
27 | COc1ccc(-c2noc(N3CCC(C(=O)Nc4ccc(F)cc4F)CC3)n2)cc1 | -5.26
28 | CN(C)c1nc(N(C)C)nc(N2CC(=O)N(c3ccccc3)C2=N)n1 | 10.3

Row | Compound | hERG current change (%, negative = inhibition) at 10uM [%]
29 | O=C(CC(=O)NC1CCCCC1)N/N=C/c1ccc(Cl)cc1 | -0.0137
30 | O=C(NC1CCCCC1)c1ccc(CS(=O)Cc2ccccc2Cl)o1 (stereo not shown) | -9.4
31 | CN(C(=O)COC(=O)CNC(=O)CNC(=O)c1ccc(Cl)cc1Cl)c1ccccc1 | -20
32 | CCN(CC)S(=O)(=O)c1ccc2c(c1)N(CC(=O)NCC1CCCO1)C(=O)CO2 (stereo not shown) | 14.4
33 | COc1ccc(S(=O)(=O)N2CCN(C)CC2)cc1NC(=O)c1ccccc1F | -14.3
34 | O=C(O)c1nn(Cc2ncc(-c3cccc(Cl)c3)o2)c(=O)c2ccccc12 | -1.95
35 | Cc1cc(NC(=O)C2CCCN2C(=O)Nc2cccc(Cl)c2)ccc1-n1cnnn1 (stereo not shown) | -48.3
36 | COc1ccc(-n2ncc3c(=O)n(CC(=O)Nc4ccc5c(c4)OCCO5)cnc32)cc1 | 25.2
37 | Cc1cc(C)c(C(=O)Nc2ccccc2)c(CC(C)(C)C(=O)O)c1 | 18
38 | O=C(C1CCN(S(=O)(=O)N2CCOCC2)CC1)N1CCN(c2ccccc2F)CC1 | 14.5
39 | O=C(Nc1ccccc1C(=O)NC(Cc1ccc(O)cc1)C(=O)O)c1ccccc1 (stereo not shown) | 12.2
40 | Cc1ccc(N=C2N=C(N)c3ccccc32)c(C)c1 | -2.47
41 | Cc1cc(F)ccc1NC(=O)c1cccnc1 | 4.45
42 | CC(=O)NC(Cc1ccc(F)cc1)C(=O)NC1CCN(S(=O)(=O)c2ccccc2)CC1 (stereo not shown) | -7.09
43 | Cn1c(=O)c2c(nc(Br)n2Cc2ccc3ccccc3c2)n(C)c1=O | 2.56
44 | Cc1ccc(S(=O)(=O)c2c(N)n(Cc3ccco3)c3nc4ccccc4nc23)cc1 | 10.4
45 | Cc1ccc(S(=O)(=O)NCC(=O)N/N=C/c2ccc(Cl)cc2Cl)cc1 | -12.9
46 | CCOC(=O)c1cnc2ccc(OCC)cc2c1NCc1ccccc1 | -40.3
47 | COc1ccc2nc(NC3=NC(c4ccccc4)CC(=O)N3)nc(C)c2c1 (stereo not shown) | -15.1
48 | COc1cccc(NC(=S)N(Cc2ccco2)C(C)c2ccco2)c1 (stereo not shown) | -19.2
49 | COc1ccc(NC(=O)COC(=O)c2cc(C)oc2C)c([N+](=O)[O-])c1 | 7.49
50 | N#Cc1cccc(NC(=O)CCNS(=O)(=O)c2ccc3[nH]c(=O)oc3c2)c1 | 17.9
51 | CC1CCCCC1NC(=O)CCS(=O)(=O)c1cccc2nonc12 (stereo not shown) | 5.27
52 | COc1ccc(OC)c(C(=O)c2ccc(C(=O)c3cc(OC)ccc3OC)cc2)c1 | -4.65
53 | COc1cc(CNS(=O)(=O)c2ccc3c(c2)CC(C)N3C(=O)C2CCC2)cc(OC)c1OC (stereo not shown) | -10.2
54 | CN(C)CCCOC(=O)COc1ccc(Br)cc1.Cl | -5.78
55 | Cn1nnnc1NCc1cccc(Cl)c1 | 6.57
